The RNAGym collection of RNA variant scans (doi:10.7554/elife.90254)
The source gives no read counts; variants with many changes may rest on few reads.

B1: LINE1-mini (parent)
chain: GGCAGAGCUCAACACAGCGUGGCAAAGUGGCUGUGGCUAGACUGCC

Variants of: B1
Experiment: self-cleavage, relative activity (ratio to wild type); higher = more cleavage; in vitro, sequencing; the parent is a self-cleaving ribozyme

Variant	self-cleavage
C18A A25U G36C U43G	0
U9A C23A A24G	0.24
A11C G21U G44C C45A	0.01
G1A A4U G35U G40C	0.08
C3A G36C G40A C42A	0.31
C15U C18U G19A A24C G27A G33U	0.25
C13A G27C U38C	0.01
G2C C23U U34G C42U	0.14
U9A C42G G44U	0.04
G5A C10A G44U	0.06
C10A A25U G30C U43C	0.04
C18G G40A A41C	0.04
C8U G19C C45A	0.05
G22U G29C U34G	0.05
G7A G17C U28A C31U G44A	0.05
A16U G19U G29C	0.19
C3U A16U C31U A41G G44U	0.01
A6C C8A C18U G30U G35U	0.04
A14C G17U A41U G44A C46U	0.03
C15U U28G G35U U38C U43A C46A	0.01
G7A A24G G35U G36U A41C	0.02

Variant	self-cleavage
A11U C15A G22U G33A A39C G40A	0.01
C15A G19C U20G G30U	0.05
A4G A6U C15G G17C A26G C31A	0.18
U9G C10A A41C	0.03
G7A C18A G19U U38A	0.13
C8G G17C G21U	0.24
C10G A14C G29U C37U A39U	0.01
G5A C8U C10A C46A	0.02
C18U G21A G27A C31U	0.12
A4C A14U G27U G29A	0.29
C10U U28G C42G	0.02
C15G G40U A41G	0.02
C3G A4G A6U C18A G30A	0.24
C8A C23G U28C U34C C42G	0.16
A12C C18U A25U	0.04
G5A G19U C31A	0.08
A12G G27U G33C G40A C46U	0.04
U9G G27C C31U C42G	0.05
C8A A26U G29U A41G	0.35
A12G C15A U28C C31G	0.02
A14G G17U C42U C46A	0.01

Variant	self-cleavage
A12G C13G U20A G21U A24G G36U	0.2
A11G G19A C31U	0.02
U9C A12U G27U	0.02
C31U U34G C37U	0.02
G2A C10G C13U C37A C42A	0.02
A14U A16U G44A	0.03
U28C G30U A39U	0.42
C10G A16C G40U C45G	0.01
G30C C37U G44C	0.06
C10A C37U G44C C46G	0
C3A G30U G33C G36A C45G	0.01
G1C G2C C31U G44U	0.06
G7C C13U C23G C37A	0.11
U9G C18U G29C C37U	0.06
A6C C8A C15G	0.36
C3U G5C A16C G40U	0.03
G27C G40U G44A C46A	0.02
U20A C23G U28A	0.14
G2C G19C G44C	0.01
G2A C8A G17A A25G C45G C46A	0.29
A14U C18A C46G	0.06

Variant	self-cleavage
C15G A16C C18U U20G G21A G22C C23U C45U	0.02
C18A A26C G30A	0.17
C3U A12G C13U	0.03
C10A G17C A24U	0.03
G2A A12U C42A	0.32
G2C A4C C8A C10U U43G	0
C13G G29U C42G	0
G5C A25G G27C	0.13
G1A G2A G7C A11U C18U	0.13
A16U C23A C46U	0.28
C8U G27U G33U A39U	0.02
U9C U32C G33U	0
A4G C8U U20G	0.05
C3G G29U U38G	0.24
U9C U32C A39C	0.03
G5A A6C A11G A25U A41U	0.02
C3U G22A U32C G33U G35U G44A C45A	0.03
G5C A12C C23U U38C	0.03
A14U G19C G33A	0.11
G29U U34G A39C G44C	0.01
G2C G5U U32G G35U	0.07
